Test results reported in patent US9879008B2, “2,3,4,6-tetra-substituted benzene-1,5-diamine derivatives, preparation method therefor and medicinal use thereof” (SHANGHAI HAIYAN PHARMACEUTICAL TECHNOLOGY CO., LTD., priority 2014, dated 2018).

Assays:
[1] = molecular target: T1, EGFR T790M/L858R double mutant EGFR kinase (Homo sapiens, UniProt P00533, L858R/T790M); conditions: ratio of enzyme IC50 values
[2] = molecular target: T1, EGFR T790M/L858R double mutant EGFR kinase; experiment: biochemical

| Selective inhibitory activity against enzyme [IC50(EGFR WT)/IC50(T790M/L858R)] [1] | IC50 [2] [nM] | SMILES |
| --- | --- | --- |
| 6.7 | 3 | C=CC(=O)Nc1cc(Nc2ncc(Cl)c(OC3CCCN(S(C)(=O)=O)CC3)n2)c(OC)cc1N(C)CCN(C)C (centres unmarked) [Compound J-1, N-(5-(5-chloro-4-(1-(methylsulfonyl)azacycloheptane-4-oxy)pyrimidine-2-amino)-2-((2-(dimethylamino)ethyl)(methyl)amino)-4-methoxylphenyl)acrylamide] |
| 2.3 | 66 | C=CC(=O)Nc1cc(Nc2nccc(OC3CCN(C(=O)OC(C)(C)C)CC3)n2)c(OC)cc1N1CCC(N(C)C)CC1 [Compound J-2, tert-butyl 4-(2-(5-acrylamido-4-(4-(dimethylamino)piperidine-1-yl)-2-methoxyphenylamino)pyrimidine-4-oxy)piperidine-1-formate] |
| 4.2 | 9 | C=CC(=O)Nc1cc(Nc2ncc(Cl)c(OC3CCN(S(C)(=O)=O)CC3)n2)c(OC)cc1N(C)CCN(C)C [Compound J-3, N-(5-(5-chloro-4-(1-(methylsulfonyl)piperidine-4-oxy)pyrimidine-2-amino)-2-((2-(dimethylamino)ethyl)(methyl)amino)-4-methoxylphenyl) acrylamide] |
| 1.53 | 34 | C=CC(=O)Nc1cc(Nc2nccc(OC3CCN(S(C)(=O)=O)CC3)n2)c(OC)cc1N(C)CCN(C)C [Compound J-4, N-(2-((2-(dimethylamino)ethyl)(methyl)amino)-4-methoxy-5-(4-(1-(methylsulfonyl)piperidine-4-oxy)pyrimidine-2-amino)phenyl) acrylamide] |
| 2.04 | 25 | C=CC(=O)Nc1cc(Nc2nccc(OC3CCN(S(C)(=O)=O)CC3)n2)c(OC)cc1N1CCC(N(C)C)CC1 [Compound J-5, N-(2-(4-(dimethylamino)piperidine-1-yl)-4-methoxy-5-(4-(1-(methylsulfonyl)piperidine-4-oxy)pyrimidine-2-amino)phenyl)acrylamide] |
| 1.8 | 40 | C=CC(=O)Nc1cc(Nc2nccc(OC3CN(S(=O)(=O)c4ccccc4)C3)n2)c(OC)cc1N1CCC(N(C)C)CC1 [Compound J-9, N-(2-(4-(dimethylamino)piperidine-1-yl)-4-methoxy-5-(4-(1-(phenylsulfonyl)azetidine-3-oxy)pyrimidino)phenyl)acrylamide] |
| 6 | 2 | C=CC(=O)Nc1cc(Nc2ncc(Cl)c(OC3CN(S(C)(=O)=O)C3)n2)c(OC)cc1N(C)CCN(C)C [Compound J-11, N-(5-(5-chloro-4-(1-(methylsulfonyl)azetidine-3-oxy)pyrimidine-2amino)-2-((2-(dimethylamino)ethyl)(methyl)amino)-4-methoxyphenyl)acrylamide] |
| >32 | < 0.5 | C=CC(=O)Nc1cc(Nc2ncc(Cl)c(SC3CN(S(C)(=O)=O)C3)n2)c(OC)cc1N1CCC(N(C)C)CC1 [Compound J-13, N-(5-(5-chloro-4-(1-(methylsulfonyl)azetidine-3-thio)pyrimidine-2-amino)-2-(4-(dimethylamino)piperidine-1-yl)-4-methoxylphenyl)acrylamide] |
| 1.3 | 6 | C=CC(=O)Nc1cc(Nc2nccc(OC3CN(c4cccnc4)C3)n2)c(OC)cc1N(C)CCN(C)C [Compound J-17] |
| 1.03 | 29 | C=CC(=O)Nc1cc(Nc2nccc(OC3CN(c4cnc5c(ccn5C)c4)C3)n2)c(OC)cc1N1CCC(N(C)C)CC1 [Compound J-18] |
| 2.2 | 31 | C=CC(=O)Nc1cc(Nc2nccc(OC3CN(C(C)=O)C3)n2)c(OC)cc1N1CCC(N(C)C)CC1 [Compound J-20] |
| 2.1 | 15 | C=CC(=O)Nc1cc(Nc2nccc(OC3CN(C(C)=O)C3)n2)c(OC)cc1N(C)CCN(C)C [Compound J-23] |
| 2.4 | 50 | C=CC(=O)Nc1cc(Nc2nccc(OC3CN(C(=O)c4ccc(C)cc4)C3)n2)c(OC)cc1N1CCC(N(C)C)CC1 [Compound J-24] |
| 12.7 | 9 | C=CC(=O)Nc1cc(Nc2ncc(Cl)c(OC3CN(C(C)=O)C3)n2)c(OC)cc1N1CCC(N(C)C)CC1 [Compound J-27] |
| 16.3 | 3 | C=CC(=O)Nc1cc(Nc2ncc(Cl)c(OC3CN(C(C)=O)C3)n2)c(OC)cc1N(C)CCN(C)C [Compound J-28] |
| 6 | 1 | C=CC(=O)Nc1cc(Nc2ncc(F)c(OC3CN(S(C)(=O)=O)C3)n2)c(OC)cc1N1CCC(N(C)C)CC1 [Compound J-29] |
| 4.3 | 22 | C=CC(=O)Nc1cc(Nc2ncc(F)c(OC3CN(C(C)=O)C3)n2)c(OC)cc1N1CCC(N(C)C)CC1 [Compound J-30] |
| 13.5 | 2 | C=CC(=O)Nc1cc(Nc2ncc(C(F)(F)F)c(OC3CN(S(C)(=O)=O)C3)n2)c(OC)cc1N1CCC(N(C)C)CC1 [Compound J-31] |
| 1.8 | 6 | C=CC(=O)Nc1cc(Nc2ncc(C#N)c(OC3CN(S(C)(=O)=O)C3)n2)c(OC)cc1N1CCC(N(C)C)CC1 [Compound J-32] |

| Selective inhibitory activity against enzyme [IC50(EGFR WT)/IC50(T790M/L858R)] [1] | IC50 [2] [nM] | SMILES |
| --- | --- | --- |
| 10.9 | 55 | C=CC(=O)Nc1cc(Nc2ncc(Cl)c(OCC3CN(C(C)=O)C3)n2)c(OC)cc1N1CCC(N(C)C)CC1 [Compound J-33] |
| 10.3 | 11 | C=CC(=O)Nc1cc(Nc2ncc(Cl)c(OCC3CN(S(C)(=O)=O)C3)n2)c(OC)cc1N1CCC(N(C)C)CC1 [Compound J-34] |
| 11.4 | 7 | C=CC(=O)Nc1cc(Nc2ncc(Cl)c(OC3CCCN(C(C)=O)CC3)n2)c(OC)cc1N1CCC(N(C)C)CC1 (centres unmarked) [Compound J-35] |
| 1.55 | 11 | C=CC(=O)Nc1cc(Nc2nccc(OC3CCCN(S(C)(=O)=O)CC3)n2)c(OC)cc1N(C)CCN(C)C (centres unmarked) [Compound J-36] |
| 11 | 2 | C=CC(=O)Nc1cc(Nc2ncc(Cl)c(OC3CCCN(S(C)(=O)=O)CC3)n2)c(OC)cc1N1CCC(N(C)C)CC1 (centres unmarked) [Compound J-37] |
| 13.1 | 13 | C=CC(=O)Nc1cc(Nc2ncc(Cl)c(OC3CCN(C(C)=O)CC3)n2)c(OC)cc1N1CCC(N(C)C)CC1 [Compound J-38] |
| 13 | 3 | C=CC(=O)Nc1cc(Nc2ncc(Cl)c(OC3CCN(S(C)(=O)=O)CC3)n2)c(OC)cc1N1CCC(N(C)C)CC1 [Compound J-39] |
| 5.9 | 8 | C=CC(=O)Nc1cc(Nc2ncc(Cl)c(O[C@@H]3CCCN(S(C)(=O)=O)C3)n2)c(OC)cc1N(C)CCN(C)C [Compound J-40, (R)—N-(5-(5-chloro-4-(1-(methylsulfonyl)piperidine-3-oxy)pyrimidine-2-amino)-2-((2-(dimethylamino)ethyl)(methyl)amino)-4-methoxyphenyl)acrylamide] |
| 13.7 | 3 | C=CC(=O)Nc1cc(Nc2ncc(Cl)c(O[C@@H]3CCN(S(C)(=O)=O)C3)n2)c(OC)cc1N1CCC(N(C)C)CC1 [Compound J-45, (R)—N-(5-(5-chloro-4-(1-(methylsulfonyl)pyrrolidine-3-oxy)pyrimidine-2-amino)-2-(4-(dimethylamino)piperidine-1-yl)-4-methoxyphenyl)acrylamide] |
| 16.3 | 3 | C=CC(=O)Nc1cc(Nc2ncc(Cl)c(O[C@H]3CCN(S(C)(=O)=O)C3)n2)c(OC)cc1N1CCC(N(C)C)CC1 [Compound J-46] |
| 13.3 | 17 | C=CC(=O)Nc1cc(Nc2ncc(Cl)c(O[C@@H]3CCN(C(C)=O)C3)n2)c(OC)cc1N1CCC(N(C)C)CC1 [Compound J-47] |
| 15.6 | 39 | C=CC(=O)Nc1cc(Nc2ncc(Cl)c(O[C@H]3CCN(C(C)=O)C3)n2)c(OC)cc1N1CCC(N(C)C)CC1 [Compound J-48] |
| 4.2 | 61 | C=CC(=O)Nc1cc(Nc2ncc(F)c(O[C@@H]3CCN(C(C)=O)C3)n2)c(OC)cc1N1CCC(N(C)C)CC1 [Compound J-49] |
| 4.3 | 6 | C=CC(=O)Nc1cc(Nc2ncc(F)c(O[C@@H]3CCN(S(C)(=O)=O)C3)n2)c(OC)cc1N1CCC(N(C)C)CC1 [Compound J-51] |
| 6 | 8 | C=CC(=O)Nc1cc(Nc2ncc(F)c(O[C@H]3CCN(S(C)(=O)=O)C3)n2)c(OC)cc1N1CCC(N(C)C)CC1 [Compound J-52] |
| 10.4 | 36 | C=CC(=O)Nc1cc(Nc2ncc(Cl)c(OC3CN(CCF)C3)n2)c(OC)cc1N1CCC(N(C)C)CC1 [Compound J-54] |
| 4 | 1 | C=CC(=O)Nc1cc(Nc2ncc(F)c(SC3CN(S(C)(=O)=O)C3)n2)c(OC)cc1N1CCC(N(C)C)CC1 [Compound J-57] |
| 5.3 | 13 | C=CC(=O)Nc1cc(Nc2ncc(F)c(SC3CN(C(C)=O)C3)n2)c(OC)cc1N1CCC(N(C)C)CC1 [Compound J-58] |
